Results as given in patent US20230340142A1 (SUZHOU NEOLOGICS BIOSCIENCE, published 2023).

Assays:
[1] = target: T1, human PD-L1 recombinant protein, PD-L1-his (human, UniProt Q9NZQ7 in part); assay: Gator BLI; fusion protein on HFC sensor, antigen in solution; 1:1 fit
T1 construct: also called PD-L1 with a his-tag; not shown: his-tag

[2] = target: T2, TGF-beta 1 recombinant protein (Example 11) (UniProt P01137 in part, limits assumed); assay: as above
T2 construct: also called TGF- 1; TGF-1

[3] = target: T3, human PD-L1 (human, UniProt Q9NZQ7 in part, limits assumed); assay: sandwich ELISA: coated hPD-L1, titrated fusion protein, then rhTGF-β, biotinylated anti-TGF-β antibody and streptavidin-HRP, OD450
T3 construct: also called hPD-L1

T2 sequence (P01137 279-390 limits assumed): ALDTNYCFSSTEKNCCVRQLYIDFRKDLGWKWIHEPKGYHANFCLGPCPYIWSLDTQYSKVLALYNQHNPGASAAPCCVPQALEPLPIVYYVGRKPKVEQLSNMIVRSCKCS

Binder | Kd [1] [nM] | koff [1] [s⁻¹] | kon [1] [M⁻¹ s⁻¹] | Kd [2] [nM] | koff [2] [s⁻¹] | kon [2] [M⁻¹ s⁻¹] | EC50 (read off the curve) [3] [ng/mL]
D fusion protein (SEQ ID NOs:159 and 163) (other, Anti-PD-L1 antibody (humanized Clone D) heavy chain linked to a TGFbRII ECD trap) heavy: QVQLVQSGAEVKKPGASVKVSCKASGYSFTGYTMNWVKQAHGQGLEWMGLIIPYNGGISYNQKFKDRVTMTVDTSISTAYMELSRLRSDDTAVYYCASLITTAPRDSMDYWGQGTLVTVSSASTKGPSVFPLAPSSKSTSGGTAALGCLVKDYFPEPVTVSWNSGALTSGVHTFPAVLQSSGLYSLSSVVTVPSSSLGTQTYICNVNHKPSNTKVDKRV[human IgG1 Fc omitted]PEAPTDPEAPTDPEAPTDIPPHVQKSVNNDMIVTDNNGAVKFPQLCKFCDVRFSTCDNQKSCMSNCSITSICEKPQEVCVAVWRKNDENITLETVCHDPKLPYHDFILEDAASPKCIMKEKKKPGETFFMCSCSSDECNDNIIFS light: DIQMTQSPSSLSASVGDRVTITCRASQDISNYLNWYQQKPGKAPKLLIYYTSKLHSGVPSRFSGSGSGTDFTLTISSLQPEDIATYYCQQGDALPWTFGGGTKVEIKRTVAAPSVFIFPPSDEQLKSGTASVVCLLNNFYPREAKVQWKVDNALQSGNSQESVTEQDSKDSTYSLSSTLTLSKADYEKHKVYACEVTHQGLSSPVTKSFNRGEC | 6.21 | 0.000848 | 137000 | 0.785 | 0.00179 | 2.28e+06 | ~3
C fusion protein (SEQ ID NOs:160 and 164) (other, Anti-PD-L1 antibody (humanized Clone C) heavy chain linked to a TGFbRII ECD trap) heavy: QVQLVQSGAEVKKPGASVKVSCKASGFNIKDTYMHWVRQAPGQGLEWIGRIDPANGNTKYDPKFQGRVTITTDTSASTAYLELSSLRSEDTAVYYCARGLGRWFAYWGQGTTVTVSSASTKGPSVFPLAPSSKSTSGGTAALGCLVKDYFPEPVTVSWNSGALTSGVHTFPAVLQSSGLYSLSSVVTVPSSSLGTQTYICNVNHKPSNTKVDKRV[human IgG1 Fc omitted]PEAPTDPEAPTDPEAPTDIPPHVQKSVNNDMIVTDNNGAVKFPQLCKFCDVRFSTCDNQKSCMSNCSITSICEKPQEVCVAVWRKNDENITLETVCHDPKLPYHDFILEDAASPKCIMKEKKKPGETFFMCSCSSDECNDNIIFS light: DIQMTQSPSSLSASVGDRVTITCQASQDVSNAVAWYQQKPGKAPKLLIYSASNLYTGVPSRFSGSGSGTDFTFTISSLQPEDIATYYCQQHDSTPLTFGQGTKLELKRTVAAPSVFIFPPSDEQLKSGTASVVCLLNNFYPREAKVQWKVDNALQSGNSQESVTEQDSKDSTYSLSSTLTLSKADYEKHKVYACEVTHQGLSSPVTKSFNRGEC | 5.03 | 0.000764 | 152000 | 0.75 | 0.00171 | 2.2e+06 | ~7
